In all, about 81,000 sequences were measured (“one-hybrid fitness for binding NBS DNA”: median about -0.1, highest 2% from about 0.36 on). This is one part of the list.
B1: Caulobacter ParB omega fusion; a variant is named by its letters at X, in order, B8GW30 (parent)
chain: MESVVVGEPGMSEGRRGLGRGLSALLGEVDAAPAQAPGEQLGGSREAPIEILQRNPDQPRRTFREEDLEDLSNSIREKGVLQPILVRPSPDTAGEYQIVAGERAWRAAQRAGLKTVPIMVRELDDLAVLEIGIIENVQRADLNVLEEALSYKVLMEKFERTQENIAQTIGKSXSHVANXMRLLXLPDEVQSYLVSGELTAXHARAIAAAADPVALAKQIIEGGLSVRETEALARKAPNLSAGKSKGGRPPRVKDTDTQALESDLSSVLGLDVSIDHRGSTGTLTITYATLEQLDDLCNRLTRGI

Variants of: B1
Test: one-hybrid fitness for binding NBS DNA (the Noc-binding site; scaled: cognate 1, non-cognate 0); higher = stronger binding
Settings: with NBS DNA site
How it was run: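 The reporter was HIS3, with the binding site 19 bp from the promoter, in E. coli USO used for bacterial one-hybrid selection of Caulobacter ParB libraries with four specificity codons randomised. Growth was on M9 lacking histidine, with 0.1 mM IPTG and 5 mM 3-AT, for 48 hours at 37°C. Illumina sequencing covered plasmids before and after selection; three replicate libraries were pooled and variants with under 10 reads dropped. A fitness score is the log change in variant-to-wild-type read ratio, rescaled to the cognate and non-cognate references.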

Row | Variant | one-hybrid fitness for binding NBS DNA
1 | QRCT | 0.806
2 | DLFR | ≤ 0.2
3 | LERS | ≤ 0.2
4 | RRCM | 0.271
5 | ISLC | ≤ 0.2
6 | EHAG | ≤ 0.2
7 | AAIR | ≤ 0.2
8 | KFER | ≤ 0.2
9 | TRSG | ≤ 0.2
10 | HQWY | ≤ 0.2
11 | YVAT | ≤ 0.2
12 | PCDR | ≤ 0.2
13 | PHQS | ≤ 0.2
14 | GTVL | ≤ 0.2
15 | YKTA | ≤ 0.2
16 | QMWH | ≤ 0.2
17 | QSMV | ≤ 0.2
18 | LSKC | ≤ 0.2
19 | QWKD | ≤ 0.2
20 | DYYG | ≤ 0.2
21 | FRNM | ≤ 0.2
22 | RHFD | ≤ 0.2
23 | EWHL | ≤ 0.2
24 | KMPR | ≤ 0.2
25 | HSIS | ≤ 0.2

Row | Variant | one-hybrid fitness for binding NBS DNA
26 | TSAN | ≤ 0.2
27 | LSES | ≤ 0.2
28 | QNRI | ≤ 0.2
29 | WNRT | ≤ 0.2
30 | WAVV | ≤ 0.2
31 | SFSV | ≤ 0.2
32 | WLGT | ≤ 0.2
33 | LCGT | ≤ 0.2
34 | WVMR | ≤ 0.2
35 | DYLK | ≤ 0.2
36 | LVHG | ≤ 0.2
37 | QNDI | ≤ 0.2
38 | PIPT | ≤ 0.2
39 | GDGT | ≤ 0.2
40 | RGHH | ≤ 0.2
41 | AAQS | ≤ 0.2
42 | CQVK | ≤ 0.2
43 | GGRG | ≤ 0.2
44 | ELYC | ≤ 0.2
45 | WLLD | ≤ 0.2
46 | HYDT | ≤ 0.2
47 | SYFL | ≤ 0.2
48 | PGDS | ≤ 0.2
49 | MRKY | ≤ 0.2
50 | NCAI | 0.216

Row | Variant | one-hybrid fitness for binding NBS DNA
51 | PTSF | ≤ 0.2
52 | MPCG | ≤ 0.2
53 | RGLP | ≤ 0.2
54 | FAAI | ≤ 0.2
55 | YHES | ≤ 0.2
56 | KGHM | ≤ 0.2
57 | RHKA | 0.333
58 | HCAY | ≤ 0.2
59 | FRYG | ≤ 0.2
60 | GLHR | ≤ 0.2
61 | QLSK | ≤ 0.2
62 | PPRY | ≤ 0.2
63 | KMPT | ≤ 0.2
64 | PITI | ≤ 0.2
65 | NMFR | ≤ 0.2
66 | NTSI | ≤ 0.2
67 | KINR | ≤ 0.2
68 | AWIY | ≤ 0.2
69 | DLNL | ≤ 0.2
70 | SRSL | ≤ 0.2
71 | TDCL | ≤ 0.2
72 | PSNM | ≤ 0.2
73 | CTHL | ≤ 0.2
74 | PLTY | ≤ 0.2
75 | TRHF | ≤ 0.2

Row | Variant | one-hybrid fitness for binding NBS DNA
76 | ELAY | ≤ 0.2
77 | KQKY | ≤ 0.2
78 | AYNA | ≤ 0.2
79 | CLPR | ≤ 0.2
80 | AEIT | ≤ 0.2
81 | DKYI | ≤ 0.2
82 | CFPG | ≤ 0.2
83 | PQPD | ≤ 0.2
84 | AEKT | ≤ 0.2
85 | AHDP | ≤ 0.2
86 | CLRN | ≤ 0.2
87 | ARMN | ≤ 0.2
88 | EQAT | ≤ 0.2
89 | RSSC | ≤ 0.2
90 | NEMT | ≤ 0.2
91 | PRAS | ≤ 0.2
92 | SSLK | ≤ 0.2
93 | THLT | ≤ 0.2
94 | VPTI | ≤ 0.2
95 | MNMN | ≤ 0.2
96 | MSTG | ≤ 0.2
97 | GFYS | ≤ 0.2
98 | CTTK | ≤ 0.2
99 | QCCI | ≤ 0.2
100 | SAQL | ≤ 0.2

Row | Variant | one-hybrid fitness for binding NBS DNA
101 | HKVR | ≤ 0.2
102 | IVAR | ≤ 0.2
103 | GDDR | ≤ 0.2
104 | AVFS | ≤ 0.2
105 | TKSL | ≤ 0.2
106 | PHAN | ≤ 0.2
107 | KRCE | ≤ 0.2
108 | SHAG | ≤ 0.2
109 | KPPT | ≤ 0.2
110 | DIQM | ≤ 0.2
111 | GKGD | ≤ 0.2
112 | WSIM | ≤ 0.2
113 | RTIP | ≤ 0.2
114 | RKPS | ≤ 0.2
115 | GHTR | ≤ 0.2
116 | IWST | ≤ 0.2
117 | QKWT | 0.454
118 | YAHS | ≤ 0.2
119 | TFPR | ≤ 0.2
120 | RPCN | ≤ 0.2
121 | RLVR | 0.257
122 | VLKN | ≤ 0.2
123 | GPVL | ≤ 0.2
124 | HANM | ≤ 0.2
125 | QTCK | ≤ 0.2

Row | Variant | one-hybrid fitness for binding NBS DNA
126 | FQRN | ≤ 0.2
127 | RQVL | ≤ 0.2
128 | LSNV | ≤ 0.2
129 | SNPC | ≤ 0.2
130 | THMM | ≤ 0.2
131 | MIQC | ≤ 0.2
132 | SKRC | ≤ 0.2
133 | QPPM | ≤ 0.2
134 | VLMV | ≤ 0.2
135 | RTGL | ≤ 0.2
136 | TALR | ≤ 0.2
137 | VIYV | ≤ 0.2
138 | YPQI | ≤ 0.2
139 | GCSW | ≤ 0.2
140 | KNHR | ≤ 0.2
141 | APFW | ≤ 0.2
142 | RGTE | ≤ 0.2
143 | SMLW | ≤ 0.2
144 | ITDL | ≤ 0.2
145 | PKPY | ≤ 0.2
146 | QVNR | 0.465
147 | SAWW | ≤ 0.2
148 | ALRW | ≤ 0.2
149 | TIPH | ≤ 0.2
150 | GERN | ≤ 0.2

Row | Variant | one-hybrid fitness for binding NBS DNA
151 | RISA | ≤ 0.2
152 | PRRK | ≤ 0.2
153 | NVYG | ≤ 0.2
154 | QAGN | ≤ 0.2
155 | LSQE | ≤ 0.2
156 | NKTI | ≤ 0.2
157 | RGQY | ≤ 0.2
158 | TGAD | ≤ 0.2
159 | RVID | ≤ 0.2
160 | SDQS | ≤ 0.2
161 | NVDE | ≤ 0.2
162 | TESQ | ≤ 0.2
163 | QLVY | ≤ 0.2
164 | LKPS | ≤ 0.2
165 | PDLY | ≤ 0.2
166 | SFTH | ≤ 0.2
167 | RNNA | ≤ 0.2
168 | SSRQ | ≤ 0.2
169 | HREV | ≤ 0.2
170 | MEYG | ≤ 0.2
171 | EGLW | ≤ 0.2
172 | IGTC | ≤ 0.2
173 | PPWL | ≤ 0.2
174 | IACM | ≤ 0.2
175 | YDLL | ≤ 0.2

Row | Variant | one-hybrid fitness for binding NBS DNA
176 | RNFK | ≤ 0.2
177 | AIVF | ≤ 0.2
178 | TGPG | ≤ 0.2
179 | FMTN | ≤ 0.2
180 | HHDS | ≤ 0.2
181 | LTPL | ≤ 0.2
182 | LRHV | ≤ 0.2
183 | RSKR | 0.682
184 | DKVC | ≤ 0.2
185 | NMNR | ≤ 0.2
186 | SRIQ | ≤ 0.2
187 | PPPS | ≤ 0.2
188 | LHKL | ≤ 0.2
189 | EAFW | ≤ 0.2
190 | YLQA | ≤ 0.2
191 | VRRC | ≤ 0.2
192 | RMCA | ≤ 0.2
193 | LHAW | ≤ 0.2
194 | MVPT | ≤ 0.2
195 | DSER | ≤ 0.2
